{"source": "PubChem BioAssay AID1346428", "about": "(National Center for Advancing Translational Sciences (NCATS), 2018)", "note": "Screen size: about 48,000 compounds; about 1,200 (2.5%) were called active. Inconclusive results (about 2%) are left out.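 Rule for the calls: active = activation of at least 60% and not above a set upper limit (about 1 call in 100 departs from these limits); inconclusive = activation of 40% to 60%, or above that upper limit; inactive = activation under 40%.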 This is one part of the list.", "data": [{"molecular_target": "Probable G-protein coupled receptor 32 (Homo sapiens) (UniProt O75388)", "sequence (O75388 whole entry, looked up)": "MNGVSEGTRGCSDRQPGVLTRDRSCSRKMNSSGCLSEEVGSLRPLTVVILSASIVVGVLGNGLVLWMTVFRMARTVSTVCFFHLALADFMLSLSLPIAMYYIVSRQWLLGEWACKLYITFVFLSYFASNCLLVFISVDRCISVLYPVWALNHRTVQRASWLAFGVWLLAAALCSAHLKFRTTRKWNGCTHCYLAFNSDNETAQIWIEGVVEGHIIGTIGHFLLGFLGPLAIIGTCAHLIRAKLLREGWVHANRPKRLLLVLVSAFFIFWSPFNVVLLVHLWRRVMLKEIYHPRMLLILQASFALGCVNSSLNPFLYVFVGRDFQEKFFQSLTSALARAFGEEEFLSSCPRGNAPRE", "assay": "qHTS for Agonists of Human Resolvin D1 Receptor DRV1; note: 0% is about no effect", "conditions": "CHO-K1 GPR32 beta-arrestin PathHunter luminescence, 90 min; at 76.9 µM; active compounds read high; zero percent set by DMSO-only wells", "outline": "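Using DMSO wells as EC0, agonist-induced signal was taken as chemiluminescence from beta-Gal reconstituted upon beta-arrestin recruitment to GPR32 in CHO-K1 cells after 90 min compound treatment.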", "values": [{"compound": "O=C(Cn1c(=O)nc(-c2ccccc2)c2cc(Cl)ccc21)NCc1ccc(Cl)cc1", "activation": "inactive: 17%"}, {"compound": "Nc1nc(Nc2ccccc2)nc2c1ncn2[C@@H]1O[C@H](CO)[C@@H](O)[C@H]1O", "activation": "inactive: -0.962%"}, {"compound": "CCCS(=O)(=O)N1CC(=O)N(c2ccc(C)cc2C)C(C)(C(=O)NC2CCCCCC2)C1", "note": "(configuration not stated)", "activation": "inactive: 0.0718%"}, {"compound": "CCOc1ccc(CCNC(=O)c2ccc3c(c2)N(Cc2ccccc2F)C(=O)c2ccccc2S3=O)cc1OCC", "note": "(configuration not stated)", "activation": "inactive: -8.71%"}, {"compound": "COc1ccc(CCNS(=O)(=O)c2cc(-c3onc(C)c3C)ccc2OC)cc1OC", "activation": "inactive: -12.3%"}, {"compound": "O=C(CCS(=O)(=O)c1cc2c3c(c1)CCN3C(=O)CC2)Nc1cccc(Br)c1", "activation": "inactive: 18.2%"}, {"compound": "O=C(Nc1cnn(Cc2ccc(Cl)cc2Cl)c1)c1noc2c1CCc1ccccc1-2", "activation": "inactive: -8.12%"}, {"compound": "COc1ccc(C(CC(=O)Nc2cc(OC)c(OC)c(OC)c2)N2Cc3ccccc3C2=O)cc1", "note": "(configuration not stated)", "activation": "inactive: 0.781%"}, {"compound": "CCN1CCN(CCCNC(=O)Cn2c(-c3cccs3)cc3cc(F)ccc32)CC1", "activation": "inactive: 15.8%"}, {"compound": "O=C(COCc1cc(-c2ccc3c(c2)OCO3)on1)Nc1cc(C(F)(F)F)ccc1Cl", "activation": "inactive: -17.1%"}, {"compound": "Cc1cc2c(cc1S(=O)(=O)CCC(=O)N1CCCCC1C)OCC(=O)N2", "note": "(configuration not stated)", "activation": "inactive: 10.5%"}, {"compound": "Cc1ccc(C)c(Nc2nn3c(=O)c4cc5c(cc4nc3s2)OCO5)c1", "activation": "active: 63.3%"}, {"compound": "CCc1ccc(NC(=O)CSc2nc(=O)n(Cc3ccncc3)c3c2CCC3)cc1", "activation": "inactive: 3.48%"}, {"compound": "COc1ccccc1N1CCN(S(=O)(=O)CCNC(=O)Cc2ccc(Cl)cc2)CC1", "activation": "inactive: -9.42%"}, {"compound": "O=c1c(S(=O)(=O)c2ccccc2)cn(Cc2cccc(F)c2)c2cc(N3CCCC3)c(F)cc12", "activation": "inactive: -12.4%"}, {"compound": "CCOC(=O)N1CCc2c(sc(NCc3cccs3)c2C(=O)Nc2ccc(OC)cc2OC)C1", "activation": "inactive: 0.701%"}, {"compound": "CCCCN(C)CCNC(=O)CN1C(=O)CSc2ccc(S(=O)(=O)N3CCCCC3)cc21", "activation": "inactive: -7.3%"}, {"compound": "O=C(CCC1N=C2c3ccccc3N=C(SCC(=O)Nc3ccc(F)cc3)N2C1=O)NCc1cccs1", "note": "(configuration not stated)", "activation": "inactive: -16.4%"}, {"compound": "Cc1cccc(NC(=O)c2ccc(CNS(=O)(=O)c3ccc4c(c3)C(C)(C)C(=O)N4C)cc2)c1", "activation": "inactive: 16.7%"}, {"compound": "Cc1ccc(N2CCN(C(=O)NCc3noc4ccc(C)cc34)CC2)c(C)c1", "activation": "inactive: -24.4%"}, {"compound": "Cc1ccccc1C(=O)N(Cc1ccc(N(C)C)cc1)CC1CCCO1", "note": "(configuration not stated)", "activation": "inactive: -21.9%"}, {"compound": "O=C(NCCOCCn1c(=O)oc2ccccc21)Nc1cccc(Cl)c1", "activation": "inactive: -9.21%"}]}]}
